About 150 (0.038%) of roughly 390,000 compounds were called active. Inconclusive results, whose numbers are uncertain, are shown with a selection of clear calls. The call rests on the fitted dose curve; in most records, active means well fitted inhibition curve with a large enough effect; inconclusive means small, poorly fitted or top-dose-only effect; inactive means no such curve, though single readings can be large or run the other way. A potency beside an inconclusive call is a rough fit, not a confirmed value.
Target: Regulator of G-protein signaling 4 (Homo sapiens) (UniProt P49798)
UniProt P49798, sequence (P49798 whole entry, looked up): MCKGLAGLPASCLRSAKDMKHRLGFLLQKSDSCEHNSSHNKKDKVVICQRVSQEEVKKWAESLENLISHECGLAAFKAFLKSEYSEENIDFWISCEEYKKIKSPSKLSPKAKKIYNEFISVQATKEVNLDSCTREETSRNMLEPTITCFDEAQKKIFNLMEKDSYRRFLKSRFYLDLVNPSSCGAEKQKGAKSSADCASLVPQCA
Test: Inhibitors of Regulator of G Protein Signaling (RGS) 4: qHTS; further: nearly all actives have a fitted effect of over 75% in size
Details: Transcreener GDP fluorescence polarization, RGS4-accelerated GTP hydrolysis; series mostly up to 114 µM; activity change, negative = inhibition: at the top concentration
Procedure, shortened: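 MLSMR compounds (23 nl, pin-transferred) preincubated 10 min at room temperature with a 500nM (2x) first reagent, then RGS4 at 900nM (2x) plus Transcreener GDP mix added; fluorescence polarization (620/688 nm) read before and after 90 min at 30 °C.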
On the % scale 0 is the no-effect control and ±100 the full control effect; potency means the concentration at half of the fitted maximal effect; tags describe the fitted curve by direction and shape.

SMILES | Potency | activity change, negative = inhibition
O=C(/C=C/c1cccs1)NC1CCS(=O)(=O)C1 (stereo not given) | inconclusive: 50.1 µM [inhibitor, partial curve, poor fit] | –
CC(=O)Nc1ccc(NC(=S)NC(=O)/C=C/c2ccccc2)cc1 | inconclusive: 50.1 µM [inhibitor, partial curve, poor fit] | –
Cc1oc(-c2ccccc2)cc1C(N)=O | inconclusive: 79.4 µM [inhibitor, partial curve, poor fit] | –
CCOC(=O)c1ccc(NC(=O)CC2Nc3cccc4cccc(c34)NC2=O)cc1 (stereo not given) | inconclusive: 89.1 µM [inhibitor, partial curve, poor fit] | –
O=C1CC(c2ccccc2)CC(O)=C1C=NCCc1ccccc1 (stereo not given) | – | inactive: -25.7%
COc1ccc(-c2onc(C)c2C)cc1S(=O)(=O)N1CCc2ccccc21 | – | inactive: 6.94%
CCc1nc(Nc2ccccc2OC)c2oc3ccccc3c2n1 | inconclusive: 50.1 µM [inhibitor, partial curve, poor fit] | –
Cc1ccccc1NC(=O)OCCN1CCN(Cc2ccccc2)CCC1=O | inconclusive: 79.4 µM [inhibitor, partial curve, poor fit] | –
CCCOP(=O)(OCCC)c1nc(-c2ccccc2)oc1NCc1ccccc1 | – | inactive: -30.7%
O=C(O)c1ccccc1C(=O)Nc1n[nH]c(=S)s1 | inconclusive: 17.8 µM [inhibitor, full curve, poor fit] | –
CC(=O)c1ccc(N=Nc2ccc(N)cc2)cc1 | – | inactive: 20.1%
S=c1[nH]nc(NCCc2ccccc2)s1 | inconclusive: 44.7 µM [inhibitor, partial curve, poor fit] | –
O=C(c1ccc2c(c1)OCCO2)N1CCN(c2nc(-c3cccs3)nc3ccccc23)CC1 | – | inactive: -10.5%
CCCCC(=O)Nc1sc2c(c1C#N)CC(C)(C)OC2 | inconclusive: 50.1 µM [inhibitor, partial curve, poor fit] | –
CCN(C(=O)CSc1nc2ccccc2n1CCc1ccccc1)C1CCS(=O)(=O)C1 (stereo not given) | inconclusive: 70.8 µM [inhibitor, single point] | –
CCCOc1ccc(Cc2c(COCC)[nH]c(=S)[nH]c2=O)cc1 | inconclusive: 79.4 µM [inhibitor, partial curve, poor fit] | –
C=CCN1c2ccccc2[C@]23C[C@@H](C(=O)OC)N(C(C)=O)C2=NC(C(=O)OC)=C(C(=O)OC)[C@H]13 | – | inactive: -19.3%
CCOc1ccc(-n2ccc(=O)c(C(=O)Nc3ccc(S(=O)(=O)Nc4nccs4)cc3)n2)cc1 | inconclusive: 79.4 µM [inhibitor, single point] | –
C/C=C/Cn1c(SCc2ccc(Cl)cc2)nc2c1c(=O)[nH]c(=O)n2C | inconclusive: 50.1 µM [inhibitor, partial curve, poor fit] | –
C=CCn1c(SCC(C)=O)nc2scc(-c3ccc(C)o3)c2c1=O | inconclusive: 31.6 µM [inhibitor, full curve, poor fit] | –
Cc1cccc(NC(=O)COc2ccc(/C=C\c3[nH]c(=O)[nH]c(=O)c3[N+](=O)[O-])cc2)c1 | inconclusive: 39.8 µM [inhibitor, full curve, poor fit] | –
CCOc1ccc(CCNC(=O)CSc2nc3ccccc3nc2Cc2ccc(C)cc2)cc1OCC | – | inactive: 9.8%

SMILES | Potency | activity change, negative = inhibition
O=C(O)C1Sc2[nH]c(=O)sc2C2c3ccc(O)cc3OC(=O)C12 (stereo not given) | inconclusive: 100 µM [inhibitor, partial curve, poor fit] | –
Cc1ccc(S(=O)(=O)c2nnn3c2nc(NCc2ccccc2)c2sccc23)cc1 | – | inactive: 6.39%
CCCCN(CC)C(=S)Nc1ccc2nc(N3CCN(C)CC3)cc(C)c2c1 | inconclusive: 89.1 µM [inhibitor, single point] | –
COc1ccccc1C(=O)Nc1cccc(OCc2cc(=O)n3c(C)csc3n2)c1 | inconclusive: 28.2 µM [inhibitor, full curve, poor fit] | –
COc1ccc(/C=C2\SC(N)=NC2=O)cc1 | – | inactive: -28.7%
Cc1cc(C)c2c(c1)C1C=CCC1C(C(=O)O)N2 (stereo not given) | inconclusive: 25.1 µM [inhibitor, full curve, poor fit] | –
CCc1cccc(C)c1NC(=O)C1CCN(c2nnc(C)c3c(C)n(-c4ccccc4)nc23)CC1 | inconclusive: 100 µM [inhibitor, single point] | –
COc1ccccc1CNC(=O)C(C)Sc1ccsc1[N+](=O)[O-] (stereo not given) | inconclusive: 50.1 µM [inhibitor, partial curve, poor fit] | –
CCN1CCc2c(sc(NC(=S)NC(=O)c3ccco3)c2C(N)=O)C1 | inconclusive: 35.5 µM [inhibitor, partial curve, poor fit] | –
Cc1ccc(N/N=C(\C#N)C(N)=S)c(C)c1 | inconclusive: 56.2 µM [inhibitor, partial curve, poor fit] | –
COc1ccc(C2CC(=O)N3CN(c4ccc(C)c(Cl)c4)CSC3=C2C#N)cc1OC (stereo not given) | inconclusive: 28.2 µM [inhibitor, full curve, poor fit] | –
CC(C)/C(=N\NS(=O)(=O)c1ccc(Br)cc1)c1cccs1 | inconclusive: 56.2 µM [inhibitor, partial curve, poor fit] | –
Cc1nc(CN2CCC(c3ccccc3)CC2)cc(=O)[nH]1 | inconclusive: 25.1 µM [inhibitor, full curve, poor fit] | –
CCNc1nc(NCC)n2c(SCc3ccc(F)cc3)nnc2n1 | inconclusive: 89.1 µM [inhibitor, single point] | –
Cn1c(=O)c2cc(S(=O)(=O)NCCC(=O)Nc3ccc(Cl)cc3)ccc2n(C)c1=O | inconclusive: 44.7 µM [inhibitor, partial curve, poor fit] | –
CC1(C)CCC(=NNC(N)=S)CC1 | inconclusive: 89.1 µM [inhibitor, single point] | –
COc1ccccc1CNC(=O)CCCn1c(=O)c2cccn2c2ccccc21 | – | inactive: -6.79%
Cc1ccc(Oc2ncnc(N)c2[N+](=O)[O-])cc1 | – | inactive: 5.81%
NNC(=O)c1nnsc1-c1csnn1 | inconclusive: 89.1 µM [inhibitor, single point] | –
Cc1ccc(S(=O)(=O)N2CCN(C(=O)CCc3c[nH]c4ccccc34)CC2)c(C)c1 | inconclusive: 17.8 µM [inhibitor, full curve, poor fit] | –
O=C(C#Cc1ccccc1)c1ccco1 | inconclusive: 79.4 µM [inhibitor, partial curve, poor fit] | –
C=CCOC(=O)C(=O)/C=C/c1coc2ccccc2c1=O | inconclusive: 44.7 µM [inhibitor, partial curve, poor fit] | –

SMILES | Potency | activity change, negative = inhibition
CCN1CCN(C(c2cccc(OC)c2OC)c2nnnn2Cc2ccco2)CC1 (stereo not given) | inconclusive: 89.1 µM [inhibitor, single point] | –
CC(/C=C/c1ccc(C)o1)=C\C(=O)O | inconclusive: 100 µM [inhibitor, partial curve, poor fit] | –
CN(Cc1ccco1)S(=O)(=O)c1ccc2c(c1)CCN2C(=O)CCC(=O)O | – | inactive: 4.61%
O=C(Nc1ccc(N2CCOCC2)c(Cl)c1)c1ccc(F)cc1 | – | inactive: -7.96%
O=c1c(Cl)c(O)c2cccc3c4ccccc4n1c23 | inconclusive: 20 µM [inhibitor, full curve, poor fit] | –
Cc1ccc2nc3cc([N+](=O)[O-])cc([N+](=O)[O-])c3cc2c1 | – | inactive: -23.3%
CCOC(=O)N1CCN(/[N+]([O-])=N/Oc2ccc([N+](=O)[O-])cc2[N+](=O)[O-])CC1 | inconclusive: 26.7 µM [inhibitor, single point] | –
CC1CCc2nc(-c3cc4ccc(O)cc4oc3=O)sc2C1 (stereo not given) | – | inactive: -21.5%
O=C(/C=C/c1ccco1)Nc1ccc(Cl)c(-c2nc3cc(Cl)ccc3o2)c1 | inconclusive: 79.4 µM [inhibitor, partial curve, poor fit] | –
COc1ccc(NC(=O)/C(Cl)=C(/Cl)S(=O)Cc2ccc(Cl)cc2)cn1 (stereo not given) | inconclusive: 89.1 µM [inhibitor, partial curve, poor fit] | –
COc1ccc(C(=S)NC2CCCCC2)cc1 | inconclusive: 50.1 µM [inhibitor, partial curve, poor fit] | –
O=C(N/N=C/c1ccc(Cl)c([N+](=O)[O-])c1)c1cc(-c2ccc3c4c(cccc24)CC3)n[nH]1 | inconclusive: 100 µM [inhibitor, partial curve, poor fit] | –
COc1ccc(Nc2nc(-c3cccnc3)nc3ccccc23)cn1 | inconclusive: 20 µM [inhibitor, full curve, poor fit] | –
COCCNc1nc(CSc2ccccc2)nc2sc(C)c(C)c12 | – | inactive: -8.82%
Cc1ccc(C2NC(=O)c3c(sc(C)c3C)N2)c(O)c1 (stereo not given) | inconclusive: 35.5 µM [inhibitor, full curve, poor fit] | –
Cc1ccc(C(C)NC(=O)CSc2ccc(S(=O)(=O)N3CCOCC3)cn2)cc1C (stereo not given) | inconclusive: 100 µM [inhibitor, single point] | –
O=C(C1=C(O)C(=O)N(c2nc3ccc(Cl)cc3s2)C1c1ccco1)c1ccco1 (stereo not given) | inconclusive: 79.4 µM [inhibitor, partial curve, poor fit] | –
Cc1ccc(N2C(=O)C3C4C=CC(CNC(=S)Nc5ccc(F)cc5)(O4)C3C2=O)cc1 (stereo not given) | inconclusive: 89.1 µM [inhibitor, single point] | –
CC(=O)/C(C#N)=C1\NC(=O)C(Cc2ccccc2C)S1 (stereo not given) | – | inactive: -28.6%
COc1ccc(NC(=O)/C(Cl)=C(/Cl)S(=O)Cc2ccccc2)cn1 (stereo not given) | inconclusive: 44.7 µM [inhibitor, partial curve, poor fit] | –
NC1CCN(c2cccc(Cl)n2)CC1 | – | inactive: 22.3% [at 56.9 µM]

Source: PubChem BioAssay AID504845 (National Center for Advancing Translational Sciences (NCATS), 2011)
